Common to all, as to conditions: DSSO, in cells
The target in assay [1] is LMNB2 (UniProt Q03252).
Assay [2] concerns the target LDHB (UniProt P07195).
The target in assay [3] is NCL (UniProt P19338).
For assay [4], the target named is RPL4 (UniProt P36578).
In assay [5] the target is RPS6 (UniProt P62753).
Assay [6] has as its target GNG12 (UniProt Q9UBI6).
In assay [7] the target is LRRC59 (UniProt Q96AG4).
For assay [8], the target named is NPM1 (UniProt P06748).
In assay [9] the target is MYBBP1A (UniProt Q9BQG0).
The target in assay [10] is KIF21A (UniProt Q7Z4S6).
In assay [11] the target is HADHB (UniProt P55084).
In assay [12] the target is NUP153 (UniProt P49790).
Assay [13] deals with MDH2 (UniProt P40926).
Assay [14] concerns the target TIMM50 (UniProt Q3ZCQ8).
The target in assay [15] is HADHA (UniProt P40939).
Assay [16] concerns the target KGD4 (UniProt P82909).
UniProt P82909, sequence (P82909 whole entry): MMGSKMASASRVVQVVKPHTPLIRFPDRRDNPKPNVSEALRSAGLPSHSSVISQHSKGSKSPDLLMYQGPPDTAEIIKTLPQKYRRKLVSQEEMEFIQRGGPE
Assay [17] deals with HNRNPM (UniProt P52272).
For assay [18], the target named is SQOR (UniProt Q9Y6N5).
The target in assay [19] is H4C1 (UniProt P62805).
For assay [20], the target named is NDUFA7 (UniProt O95182).
In assay [21] the target is HSPA4 (UniProt P34932).
In assay [22] the target is HSPH1 (UniProt Q92598).
The target of assay [23] is NUCB1 (UniProt Q02818).
The target of assay [24] is MYH10 (UniProt P35580).
The target in assay [25] is NOP16 (UniProt Q9Y3C1).
Assay [26] addresses MRTO4 (UniProt Q9UKD2).
In assay [27] the target is MATR3 (UniProt P43243).
The target of assay [28] is MCM2 (UniProt P49736).
In assay [29] the target is MCM5 (UniProt P33992).
For assay [30], the target named is MCM7 (UniProt P33993).
UniProt P33993, sequence (P33993 whole entry): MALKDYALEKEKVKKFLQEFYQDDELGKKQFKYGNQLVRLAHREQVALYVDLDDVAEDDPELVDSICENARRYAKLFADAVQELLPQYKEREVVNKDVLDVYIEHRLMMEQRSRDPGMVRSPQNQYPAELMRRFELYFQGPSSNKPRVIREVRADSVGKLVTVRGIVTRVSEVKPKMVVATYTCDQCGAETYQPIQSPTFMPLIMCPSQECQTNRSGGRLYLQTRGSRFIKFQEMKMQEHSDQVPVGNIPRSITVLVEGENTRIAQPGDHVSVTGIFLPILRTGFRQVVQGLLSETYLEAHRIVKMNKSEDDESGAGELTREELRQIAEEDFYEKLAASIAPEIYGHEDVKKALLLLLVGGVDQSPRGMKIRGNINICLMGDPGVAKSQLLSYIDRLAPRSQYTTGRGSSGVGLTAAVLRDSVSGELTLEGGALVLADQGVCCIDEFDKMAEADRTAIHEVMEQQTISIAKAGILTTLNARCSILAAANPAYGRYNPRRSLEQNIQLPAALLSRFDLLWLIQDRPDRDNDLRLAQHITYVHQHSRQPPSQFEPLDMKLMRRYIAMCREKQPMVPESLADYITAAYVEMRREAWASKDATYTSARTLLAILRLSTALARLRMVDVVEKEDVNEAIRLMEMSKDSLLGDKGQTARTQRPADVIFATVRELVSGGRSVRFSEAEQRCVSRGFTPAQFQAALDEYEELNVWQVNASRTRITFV
Assay [31] deals with MCM6 (UniProt Q14566).
The target of assay [32] is NDUFA5 (UniProt Q16718).
UniProt Q16718, sequence (Q16718 whole entry): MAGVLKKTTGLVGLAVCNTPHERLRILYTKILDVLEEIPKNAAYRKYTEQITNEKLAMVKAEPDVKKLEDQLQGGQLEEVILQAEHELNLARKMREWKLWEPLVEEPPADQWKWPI
Assay [33] has as its target SNU13 (UniProt P55769).
UniProt P55769, sequence (P55769 whole entry): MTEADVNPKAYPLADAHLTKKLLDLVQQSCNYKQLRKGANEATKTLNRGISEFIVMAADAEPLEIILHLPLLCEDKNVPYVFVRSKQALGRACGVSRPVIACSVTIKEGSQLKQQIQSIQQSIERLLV
Assay [34] addresses SERBP1 (UniProt Q8NC51).

The source holds more than one record for some entries. They are shown here; other results are not. The source may hold further records. Some protein pairs were linked at several places, one record each.

PTBP1, sequence (P26599 whole entry): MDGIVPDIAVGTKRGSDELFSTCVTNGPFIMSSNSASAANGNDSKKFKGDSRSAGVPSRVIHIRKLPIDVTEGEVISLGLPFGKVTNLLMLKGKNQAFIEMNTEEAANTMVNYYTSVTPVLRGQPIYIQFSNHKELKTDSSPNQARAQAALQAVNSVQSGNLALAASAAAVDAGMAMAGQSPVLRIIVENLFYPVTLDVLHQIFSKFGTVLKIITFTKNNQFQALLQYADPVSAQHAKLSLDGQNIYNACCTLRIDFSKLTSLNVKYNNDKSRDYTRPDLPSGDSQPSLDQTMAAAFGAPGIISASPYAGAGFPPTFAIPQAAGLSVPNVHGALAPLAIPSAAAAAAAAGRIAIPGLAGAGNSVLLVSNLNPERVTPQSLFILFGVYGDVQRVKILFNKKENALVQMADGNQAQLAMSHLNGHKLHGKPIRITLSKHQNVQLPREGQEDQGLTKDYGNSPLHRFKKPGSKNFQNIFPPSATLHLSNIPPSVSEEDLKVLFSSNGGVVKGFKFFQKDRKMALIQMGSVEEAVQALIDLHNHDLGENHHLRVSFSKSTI
TMPO, sequence (P42167 whole entry): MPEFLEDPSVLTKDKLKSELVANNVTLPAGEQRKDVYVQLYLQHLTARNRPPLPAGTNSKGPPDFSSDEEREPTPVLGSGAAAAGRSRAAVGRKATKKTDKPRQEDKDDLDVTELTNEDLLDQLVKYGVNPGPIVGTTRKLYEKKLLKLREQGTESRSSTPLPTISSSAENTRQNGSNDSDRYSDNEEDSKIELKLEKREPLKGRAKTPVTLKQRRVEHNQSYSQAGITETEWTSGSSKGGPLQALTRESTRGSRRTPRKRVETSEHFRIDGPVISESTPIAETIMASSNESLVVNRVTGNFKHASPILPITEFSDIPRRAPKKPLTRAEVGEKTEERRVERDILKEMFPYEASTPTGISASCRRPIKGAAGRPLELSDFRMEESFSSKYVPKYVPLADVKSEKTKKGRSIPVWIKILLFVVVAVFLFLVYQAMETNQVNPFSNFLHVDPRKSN
MCM3, sequence (P25205 whole entry): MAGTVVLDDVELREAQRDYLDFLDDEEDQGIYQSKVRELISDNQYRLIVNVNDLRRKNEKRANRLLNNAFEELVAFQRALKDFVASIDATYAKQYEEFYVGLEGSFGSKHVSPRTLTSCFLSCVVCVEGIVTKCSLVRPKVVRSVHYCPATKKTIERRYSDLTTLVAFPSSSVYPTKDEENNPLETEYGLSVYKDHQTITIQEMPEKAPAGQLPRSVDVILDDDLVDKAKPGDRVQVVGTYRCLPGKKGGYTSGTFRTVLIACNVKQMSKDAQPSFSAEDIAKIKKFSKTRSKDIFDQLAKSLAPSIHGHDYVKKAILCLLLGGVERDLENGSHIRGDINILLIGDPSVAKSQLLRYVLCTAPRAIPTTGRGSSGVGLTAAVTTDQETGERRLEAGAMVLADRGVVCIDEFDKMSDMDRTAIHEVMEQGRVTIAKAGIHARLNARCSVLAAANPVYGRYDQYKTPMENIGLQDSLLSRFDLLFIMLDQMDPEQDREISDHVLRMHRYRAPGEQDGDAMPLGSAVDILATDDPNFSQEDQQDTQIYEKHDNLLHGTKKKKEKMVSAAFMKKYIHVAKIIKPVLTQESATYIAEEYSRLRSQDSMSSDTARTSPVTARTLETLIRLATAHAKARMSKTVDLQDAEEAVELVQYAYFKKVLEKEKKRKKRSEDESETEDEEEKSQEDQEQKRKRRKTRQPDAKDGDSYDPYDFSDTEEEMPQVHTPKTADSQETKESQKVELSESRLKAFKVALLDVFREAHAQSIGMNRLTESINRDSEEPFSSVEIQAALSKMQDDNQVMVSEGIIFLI
ATP5MG, sequence (O75964 whole entry): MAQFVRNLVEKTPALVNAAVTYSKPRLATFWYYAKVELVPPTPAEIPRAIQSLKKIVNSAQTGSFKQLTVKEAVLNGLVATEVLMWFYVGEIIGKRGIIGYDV
MCM4, sequence (P33991 whole entry): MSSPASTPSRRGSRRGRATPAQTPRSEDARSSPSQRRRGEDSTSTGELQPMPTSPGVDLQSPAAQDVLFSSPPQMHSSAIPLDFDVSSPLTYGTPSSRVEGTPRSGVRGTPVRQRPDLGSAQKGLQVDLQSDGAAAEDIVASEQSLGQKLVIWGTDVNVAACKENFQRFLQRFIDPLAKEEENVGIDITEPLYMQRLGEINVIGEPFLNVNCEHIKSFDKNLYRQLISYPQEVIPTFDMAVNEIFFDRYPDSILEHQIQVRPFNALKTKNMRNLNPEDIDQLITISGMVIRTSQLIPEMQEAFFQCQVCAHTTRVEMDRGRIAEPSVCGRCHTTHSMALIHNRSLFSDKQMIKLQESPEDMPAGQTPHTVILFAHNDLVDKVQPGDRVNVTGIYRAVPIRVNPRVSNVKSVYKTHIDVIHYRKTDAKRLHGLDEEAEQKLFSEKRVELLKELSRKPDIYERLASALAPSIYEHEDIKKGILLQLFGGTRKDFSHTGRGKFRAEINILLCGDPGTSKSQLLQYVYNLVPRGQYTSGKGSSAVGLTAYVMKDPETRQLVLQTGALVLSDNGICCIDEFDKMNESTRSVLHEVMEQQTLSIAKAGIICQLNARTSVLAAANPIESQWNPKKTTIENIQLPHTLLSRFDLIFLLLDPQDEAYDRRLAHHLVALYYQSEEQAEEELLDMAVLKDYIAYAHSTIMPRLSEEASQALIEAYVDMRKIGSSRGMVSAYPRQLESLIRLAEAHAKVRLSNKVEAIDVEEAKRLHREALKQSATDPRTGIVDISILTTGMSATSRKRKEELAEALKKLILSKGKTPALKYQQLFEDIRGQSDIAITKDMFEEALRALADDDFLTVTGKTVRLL
DLD, sequence (P09622 whole entry): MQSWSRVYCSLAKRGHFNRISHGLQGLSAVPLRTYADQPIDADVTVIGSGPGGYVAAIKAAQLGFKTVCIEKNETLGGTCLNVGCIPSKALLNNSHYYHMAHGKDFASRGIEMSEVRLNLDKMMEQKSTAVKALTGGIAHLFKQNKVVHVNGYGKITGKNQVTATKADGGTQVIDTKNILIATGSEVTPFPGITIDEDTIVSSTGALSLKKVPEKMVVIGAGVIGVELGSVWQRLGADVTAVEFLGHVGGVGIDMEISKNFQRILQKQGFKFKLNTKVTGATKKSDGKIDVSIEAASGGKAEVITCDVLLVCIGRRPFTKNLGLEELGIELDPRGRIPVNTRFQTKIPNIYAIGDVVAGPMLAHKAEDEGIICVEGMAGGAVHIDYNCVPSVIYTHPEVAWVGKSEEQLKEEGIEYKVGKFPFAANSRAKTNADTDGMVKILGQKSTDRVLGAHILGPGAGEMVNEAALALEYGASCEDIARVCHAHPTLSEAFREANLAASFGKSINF
NDUFA7, O95182, sequence (O95182 whole entry): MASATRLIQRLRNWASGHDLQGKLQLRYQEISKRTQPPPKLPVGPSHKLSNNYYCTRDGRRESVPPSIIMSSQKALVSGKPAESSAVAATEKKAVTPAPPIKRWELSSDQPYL
NDUFS3, sequence (O75489 whole entry): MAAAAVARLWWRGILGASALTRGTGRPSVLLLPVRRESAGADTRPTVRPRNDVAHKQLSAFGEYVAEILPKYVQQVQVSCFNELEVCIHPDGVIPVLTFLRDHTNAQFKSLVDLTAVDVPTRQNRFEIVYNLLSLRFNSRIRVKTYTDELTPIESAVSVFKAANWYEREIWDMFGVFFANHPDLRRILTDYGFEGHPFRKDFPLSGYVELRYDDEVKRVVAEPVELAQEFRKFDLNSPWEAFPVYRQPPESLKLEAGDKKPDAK
UniProt Q9UBI6, sequence (Q9UBI6 whole entry): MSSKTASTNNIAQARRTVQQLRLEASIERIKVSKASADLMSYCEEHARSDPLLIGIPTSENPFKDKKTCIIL

For the substance TMPO, P42167, the cross-linked residues result in assay [1] was “K334 - K123 and K334 - K133 and K334 - K137 and K334 - K150”.
Regarding LDHA, P00338, in assay [2], the cross-linked residues entry is “K14 - K156 and K59 - K244 and K81 - K244 and K222 - K7”.
With NPM1, P06748, the cross-linked residues entry in [3] was “S139 - K71 and S149 - K102”; in [4] it was “K141 - K294 and S149 - K294 and S149 - K364”; in [5], “K32 - K243 and K141 - K119 and K141 - K164 and K141 - K211 and K141 - K230”.
With GNA13, Q14344, in assay [6], the cross-linked residues result was “K94 - K4 and K204 - K4”.
In the case of SEC61B, P60468, in assay [7], the cross-linked residues entry is “K20 - K73 and K20 - K201”.
Turning to RSL1D1, O76021, in assay [8], the cross-linked residues entry was “K395 - K141 and K395 - K215 and K408 - K141”.
As for RPL23A, P62750, in [9], the cross-linked residues result was “K50 - K344 and K78 - S1166”.
As to PSMD3, O43242, in assay [10], the cross-linked residues result is “K315 - K847 and K325 - K847 and K404 - K847”.
Turning to ATP5PD, O75947, in assay [11], the cross-linked residues entry is “K95 - K408 and K117 - K254”.
In the case of TPR, P12270, in assay [12], the cross-linked residues result was “K477 - K353 and K477 - K356”.
Turning to SDHA, P31040, the cross-linked residues result in assay [13] is “K167 - K239 and K250 - K239 and K335 - K239”; in assay [14] it was “K167 - T46 and K335 - T46”.
For ATP5MG, O75964, in assay [15], the cross-linked residues entry was “K24 - K569 and K55 - K569 and K55 - K625 and K55 - K634”.
On to DLD, P09622, for which the cross-linked residues entry is “K159 - K57 and K417 - K17 and K417 - K33 and K445 - K17 and K445 - K33 and K445 - S56” in assay [16]; “K159 - K239 and K277 - K239 and K430 - K239 and K445 - K239” in assay [13].
S100A6, P06703: the cross-linked residues entry in [17] is “K26 - K381 and K26 - K388 and K47 - K381 and K47 - K388”.
For SLC25A5, P05141, the cross-linked residues entry in [15] was “K147 - K569 and K147 - K625”; in assay [18], “K147 - K173 and K147 - K365”; in assay [14] it was “K43 - T46 and K49 - T46 and K147 - T46 and K166 - T46”.
As for HMGA1, P17096, in assay [19], the cross-linked residues result is “K15 - K9 and K74 - K32 and K74 - K78”.
For the substance NDUFS3, O75489, in assay [20], the cross-linked residues result was “K56 - K80 and K56 - K93 and K259 - K80”.
With HSPA8, P11142, the cross-linked residues entry in [21] was “K56 - K272 and K328 - K631 and K328 - K686 and K328 - K697”; in assay [22], “K328 - K703 and K328 - K786”.
Consider NUCB2, P80303, for which the cross-linked residues result in [23] was “K364 - K364 and K370 - K364”.
Consider MYH9, P35579, for which, in assay [24], the cross-linked residues result was “K1775 - S1810 and K1775 - K1813 and K1802 - K1782”.
Take RPL13, P26373: in assay [25], the cross-linked residues entry is “K136 - K106 and K136 - K107”.
For the substance CCDC86, Q9H6F5, the cross-linked residues result in assay [26] is “K215 - T108 and K215 - K205 and S224 - S93 and K229 - S93”.
For PTBP1, P26599, in [27], the cross-linked residues entry is “K436 - K491 and K454 - K3 and K454 - K483 and K454 - K491”.
On to MCM3, P25205, for which the cross-linked residues result is “K732 - K734 and K736 - K510” in assay [28]; “K248 - K272 and K688 - K581 and T694 - K581 and K732 - K581” in assay [29]; “K152 - K10 and K435 - K236” in assay [30].
In the case of MCM4, P33991, the cross-linked residues result in [31] is “K490 - K407 and K549 - K205”; in assay [30] it was “K220 - K96 and K409 - K174 and K409 - K236 and K627 - K596”.
Regarding NDUFA7, O95182, the cross-linked residues entry in assay [32] was “K80 - K40 and K80 - K46 and K93 - K46”.
As to FDXR, P22570, in assay [13], the cross-linked residues entry was “K209 - K239 and K287 - K239”.
Consider NOP56, O00567, for which the cross-linked residues result in [33] is “K158 - K9 and K396 - K86 and K422 - K86”.
Take RPL34, P49207: in assay [34], the cross-linked residues entry is “S113 - K68 and K115 - K52”.

Source of the values: paper PMC13423814.
